Data taken from PubChem BioAssay AID1768 (National Center for Advancing Translational Sciences (NCATS), 2009).
About 620 (0.23%) of roughly 270,000 compounds were called active. This list was built around the results that the source calls inconclusive (neither active nor inactive); the mix of calls is not that of the screen. Calls come from the whole dose curve; as a rule, active = well fitted inhibition curve with a large enough effect in the polarisation, with a control signal flat (not every such curve was filed as active); inconclusive = small, poorly fitted or top-dose-only effect, or effect the other way, or a change in a side signal; inactive = no such curve, though single readings can be large or run the other way; the % refers to the polarisation. Potencies of inconclusive entries are doubtful fits and often do not repeat. “Side channel” marks fits to a control or component signal instead of the main read-out.

target: Menin (Homo sapiens) (UniProt O00255); test: qHTS Assay for Inhibitors Targeting the Menin-MLL Interaction in MLL Related Leukemias: Competition With Texas Red Labeled MLL-derived Mutant Peptide; conditions: fluorescence polarization; series mostly up to 61.6 µM
Chain of UniProt O00255 (O00255 whole entry, looked up): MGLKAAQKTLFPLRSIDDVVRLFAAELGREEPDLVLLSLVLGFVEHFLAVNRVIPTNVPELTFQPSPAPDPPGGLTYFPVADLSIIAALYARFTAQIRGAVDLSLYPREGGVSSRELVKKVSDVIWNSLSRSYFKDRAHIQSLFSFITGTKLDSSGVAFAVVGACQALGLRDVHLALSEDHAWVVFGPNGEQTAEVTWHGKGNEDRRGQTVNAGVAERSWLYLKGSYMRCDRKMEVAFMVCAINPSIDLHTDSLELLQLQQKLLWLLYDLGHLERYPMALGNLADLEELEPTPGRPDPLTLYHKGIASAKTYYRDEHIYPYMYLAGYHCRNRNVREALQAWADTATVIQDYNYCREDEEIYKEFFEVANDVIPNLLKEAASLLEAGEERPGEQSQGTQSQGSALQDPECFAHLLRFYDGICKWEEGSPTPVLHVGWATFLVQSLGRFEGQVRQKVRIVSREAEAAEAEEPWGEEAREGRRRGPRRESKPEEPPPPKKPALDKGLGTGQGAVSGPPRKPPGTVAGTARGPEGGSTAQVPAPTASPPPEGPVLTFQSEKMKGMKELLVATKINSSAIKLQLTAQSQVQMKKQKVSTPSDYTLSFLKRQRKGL
Potency is the fitted concentration of half-maximal effect; tags give direction and shape of the fitted curve or compound fluorescence and quenching.

SMILES	Potency
NC(=O)c1cc(-c2ccccc2)sc1NC(=O)Cc1ccc(S(=O)(=O)N2CCOCC2)s1	inconclusive: 10 µM [quencher, side channel, partial curve]
COc1ccc(-c2csc(Nc3cccc(C)n3)n2)cc1C	inconclusive: 14.1 µM [quencher, side channel, partial curve]
CCOc1ccccc1NC(=O)Nc1cnccn1	inconclusive: 31.6 µM [fluorescent, side channel, single point]
COc1ccc(N2C(=O)C3CCCN3C2c2ccccc2)cc1Cl (stereo not drawn)	inconclusive: 39.8 µM [inhibitor, partial curve]
CCN(CC)C(=O)Cn1ncc2c1-c1ccccc1OC2	inconclusive: 3.55 µM [inhibitor, full curve, poor fit]
O=C(/C=C/Nc1ccc(Oc2ccccc2Cl)cc1)c1ccco1	inconclusive: 25.1 µM [quencher, side channel, partial curve]
COc1ccc(C(NCC(=O)NC(C)c2ccc(Cl)cc2)c2ccccc2)cc1 (stereo not drawn)	inconclusive: 11.2 µM [fluorescent, side channel, partial curve]
Cc1nc(Cl)cc(N/N=C/c2ccc(O)cc2O)n1	inconclusive: 20 µM [quencher, side channel, partial curve]
COc1ccc2c(c1)OCC(Cc1ccc(OC)c(OC)c1)C2=O (stereo not drawn)	inconclusive: 11.2 µM [inhibitor, partial curve]
Cc1cc(C)cc(NC(=S)NCCN(C2CCCCC2)C2CCCC2)c1	inconclusive: 14.1 µM [fluorescent, side channel, partial curve]
Cc1ccc2[nH]cc(CCNC(=O)C3CCCO3)c2c1 (stereo not drawn)	inconclusive: 10 µM [quencher, side channel, partial curve]
COc1ccccc1CNC(=O)C1CCCN(S(=O)(=O)c2ccc3c(c2)CC(C)N3C(C)=O)C1 (stereo not drawn)	inconclusive: 14.1 µM [inhibitor, partial curve]
COc1ccc(Cc2nnc(NC(=O)Cc3cccs3)s2)cc1	inconclusive: 3.98 µM [quencher, side channel, single point]
CCCN(CCC)CCCNc1ccc2nnc(-c3ccc(F)cc3)n2n1	inconclusive: 0.708 µM [inhibitor, full curve, poor fit]
O=C(NCc1ccccc1)c1c(Cl)nc(Cl)c(Cl)c1Cl	inconclusive: 31.6 µM [inhibitor, single point]
O=C(O)CNC(=O)CC1S/C(=N/N=C2/NC(=O)CS2)NC1=O (stereo not drawn)	inactive
COc1ccc(C)cc1NC(=S)NNC(=O)c1c(Br)cnn1C	inconclusive: 35.5 µM [quencher, side channel, single point]
O=C(C1CC1)N1CCc2cc(Br)cc(S(=O)(=O)NCC3COc4ccccc4O3)c21 (stereo not drawn)	inconclusive: 39.8 µM [inhibitor, single point]
CCOC(=O)c1sc(NC(=O)c2ccc(S(=O)(=O)N3CCOCC3)cc2)cc1C	inconclusive: 14.1 µM [quencher, side channel, partial curve]

SMILES	Potency
CCC12OC(=N)C(C#N)(C1C)C(C#N)(C#N)C(c1ccccc1)O2 (stereo not drawn)	inactive
C=CCNC(=O)C1CC(=O)N(c2ccc(OCC(=O)Nc3ccc(Cl)cc3)cc2)C1 (stereo not drawn)	inconclusive: 35.5 µM [inhibitor, single point]
OCCC#Cc1c(-c2ccsc2)sc2ccccc12	inconclusive: 39.8 µM [quencher, single point]
CCOC(=O)N1CCC(NC(=O)c2ccc3c(c2)N(C)CCS3)CC1	inactive
O=C(NC(=S)Nc1nc(-c2cccc([N+](=O)[O-])c2)cs1)c1cc(Cl)ccc1Cl	inconclusive: 8.91 µM [quencher, side channel, full curve]
Cc1cccc(Nc2ccccc2C(=O)NCc2ccco2)c1C	inconclusive: 31.6 µM [quencher, side channel, single point]
O=C(O)c1ccc(Nc2nc(-c3cc4ccccc4oc3=O)cs2)cc1O	inconclusive: 14.1 µM [quencher, side channel, partial curve]
Cc1cc(C(F)(F)F)n2ncc(-c3cccc(Br)c3)c2n1	inconclusive: 2.51 µM [fluorescent, side channel, partial curve]
CN(C)S(=O)(=O)c1cccc(NC(=O)COC(=O)c2ccc3c(c2)OCO3)c1	inconclusive: 22.4 µM [quencher, side channel, single point]
COc1ccc(CNC(=O)C/C(C)=N/NC(=O)c2cnccn2)cc1	inconclusive: 39.8 µM [inhibitor, single point]
CC1=N/C(=C\c2ccc([N+](=O)[O-])cc2)C(=O)N1c1cc(Cl)ccc1C	inconclusive: 10 µM [quencher, side channel, partial curve]
CCc1nc(N2CCN(C(=O)c3ccccc3)CC2)c2c3c(sc2n1)CCCC3	inconclusive: 8.91 µM [fluorescent, side channel, partial curve]
O=C(CSc1nnc(-c2cccs2)n1-c1ccccc1)NCc1ccco1	inconclusive: 14.1 µM [inhibitor, single point]
N#Cc1cccc(NC(=O)CSc2sc3c(O)cc(=O)[nH]c3c2C#N)c1	inconclusive: 25.1 µM [quencher, side channel, single point]
COC(=O)CC1C(=O)NCCN1Cc1cn(-c2ccc(C)cc2)nc1-c1cccc(C)c1 (stereo not drawn)	inactive
COc1cc(CNCc2c[nH]c3ccccc23)cc(OC)c1	inconclusive: 28.2 µM [fluorescent, side channel, single point]
CCC(=Nc1ccc(N)cc1)C1=C(O)C(C(=O)OC)C(C)(C)CC1=O (stereo not drawn)	active: 31.6 µM
CC(=O)Nc1c(O)nc(SCC(=O)Nc2nnc(SCc3ccccc3)s2)[nH]c1=O	inconclusive: 31.6 µM [quencher, single point]
C=CCN(C(=O)CSc1nc2c(sc3ccccc32)c(=O)n1CCN(CC)CC)c1ccccc1	inconclusive: 3.98 µM [fluorescent, side channel, full curve]
